In publication PMC12820563:
The list shows a part of the results. The list includes weakly bound sequences.

These sequences were tested against T1, MBP-FoxP3dN (UniProt Q99JB6) (assay: PD-seq (MBP pull-down with sequencing)). Settings: 20 mM Tris-HCl pH 7.5, 100 mM NaCl, 1.5 mM MgCl2, 0.4 uM protein, 0.1 uM dsDNA library, 30 min, room temperature, amylose pull-down; high values mean tight binding; double strand, one strand shown.
T1 sequence: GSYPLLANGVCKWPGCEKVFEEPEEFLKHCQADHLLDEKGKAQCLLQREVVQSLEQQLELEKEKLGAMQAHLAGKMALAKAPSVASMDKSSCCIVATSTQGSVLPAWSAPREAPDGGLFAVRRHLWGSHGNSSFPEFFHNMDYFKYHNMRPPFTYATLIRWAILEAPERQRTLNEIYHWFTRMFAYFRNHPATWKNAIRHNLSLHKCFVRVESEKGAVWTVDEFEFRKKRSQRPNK
For “GATGATTGTTCTCCCAGCTGATGAATTCGGCAGATCGAGTAAACAAATTTTCCTAATCTTTCTGTTCAAGCGCCATCTAC”, the binding signal (RPM ratio (pull-down/input)) was 0.307. Work on “GATGATTGTTCTCCCAGCTGATGAATTATTCCCGTCGAGTAAACAAATTTTCCTAATCTTTCTGTTCAAGCGCCATCTAC” yielded a binding signal (RPM ratio (pull-down/input)) of 0.253. Work on “GATGATTGTTCTCCCAGCTGATGAATTCACACGGTCGAGTAAACAAATTTTCCTAATCTTTCTGTTCAAGCGCCATCTAC” yielded a binding signal (RPM ratio (pull-down/input)) of 0.272. “GATGATTGTTCTCCCAGCTGATGAATTTTGTGTCTCGAGTAAACAAATTTTCCTAATCTTTCTGTTCAAGCGCCATCTAC” showed a binding signal (RPM ratio (pull-down/input)) of 4.27. “GATGATTGTTCTCCCAGCTGATGAATTCACAACTTCGAGTAAACAAATTTTCCTAATCTTTCTGTTCAAGCGCCATCTAC” showed a binding signal (RPM ratio (pull-down/input)) of 0.55. For “GATGATTGTTCTCCCAGCTGATGAATTGTTACATTCGAGTAAACAAATTTTCCTAATCTTTCTGTTCAAGCGCCATCTAC”, the binding signal (RPM ratio (pull-down/input)) was 1.25. With “GATGATTGTTCTCCCAGCTGATGAATTTCTTTGGTCGAGTAAACAAATTTTCCTAATCTTTCTGTTCAAGCGCCATCTAC” the binding signal (RPM ratio (pull-down/input)) was 1.03. With “GATGATTGTTCTCCCAGCTGATGAATTAGTAACGTCGAGTAAACAAATTTTCCTAATCTTTCTGTTCAAGCGCCATCTAC” the binding signal (RPM ratio (pull-down/input)) was 0.582. Sequence “GATGATTGTTCTCCCAGCTGATGAATTTTCTTGTTCGAGTAAACAAATTTTCCTAATCTTTCTGTTCAAGCGCCATCTAC” has a binding signal (RPM ratio (pull-down/input)) of 0.568. With “GATGATTGTTCTCCCAGCTGATGAATTCGACAGCTCGAGTAAACAAATTTTCCTAATCTTTCTGTTCAAGCGCCATCTAC” the binding signal (RPM ratio (pull-down/input)) was 0.304. “GATGATTGTTCTCCCAGCTGATGAATTCGAGTCTTCGAGTAAACAAATTTTCCTAATCTTTCTGTTCAAGCGCCATCTAC” showed a binding signal (RPM ratio (pull-down/input)) of 0.542. “GATGATTGTTCTCCCAGCTGATGAATTTGGTTCCTCGAGTAAACAAATTTTCCTAATCTTTCTGTTCAAGCGCCATCTAC” gave a binding signal (RPM ratio (pull-down/input)) of 1.55. Work on “GATGATTGTTCTCCCAGCTGATGAATTGGCCATATCGAGTAAACAAATTTTCCTAATCTTTCTGTTCAAGCGCCATCTAC” yielded a binding signal (RPM ratio (pull-down/input)) of 0.558. In the case of “GATGATTGTTCTCCCAGCTGATGAATTGACTTTTTCGAGTAAACAAATTTTCCTAATCTTTCTGTTCAAGCGCCATCTAC”, the binding signal (RPM ratio (pull-down/input)) is reported as 0.406. “GATGATTGTTCTCCCAGCTGATGAATTCCGTCTATCGAGTAAACAAATTTTCCTAATCTTTCTGTTCAAGCGCCATCTAC” was tested, and the binding signal (RPM ratio (pull-down/input)) was 0.882. “GATGATTGTTCTCCCAGCTGATGAATTATGACCTTCGAGTAAACAAATTTTCCTAATCTTTCTGTTCAAGCGCCATCTAC” was tested, and the binding signal (RPM ratio (pull-down/input)) was 0.451. “GATGATTGTTCTCCCAGCTGATGAATTCACGTTCTCGAGTAAACAAATTTTCCTAATCTTTCTGTTCAAGCGCCATCTAC” showed a binding signal (RPM ratio (pull-down/input)) of 0.522. With “GATGATTGTTCTCCCAGCTGATGAATTTTTGTCATCGAGTAAACAAATTTTCCTAATCTTTCTGTTCAAGCGCCATCTAC” the binding signal (RPM ratio (pull-down/input)) was 0.666. Sequence “GATGATTGTTCTCCCAGCTGATGAATTAGACGGTTCGAGTAAACAAATTTTCCTAATCTTTCTGTTCAAGCGCCATCTAC” has a binding signal (RPM ratio (pull-down/input)) of 0.354. In the case of “GATGATTGTTCTCCCAGCTGATGAATTTCCTGGATCGAGTAAACAAATTTTCCTAATCTTTCTGTTCAAGCGCCATCTAC”, the binding signal (RPM ratio (pull-down/input)) is reported as 0.15. Work on “GATGATTGTTCTCCCAGCTGATGAATTAACTATATCGAGTAAACAAATTTTCCTAATCTTTCTGTTCAAGCGCCATCTAC” yielded a binding signal (RPM ratio (pull-down/input)) of 0.384. Work on “GATGATTGTTCTCCCAGCTGATGAATTCATGAACTCGAGTAAACAAATTTTCCTAATCTTTCTGTTCAAGCGCCATCTAC” yielded a binding signal (RPM ratio (pull-down/input)) of 0.336. For “GATGATTGTTCTCCCAGCTGATGAATTACGTGAGTCGAGTAAACAAATTTTCCTAATCTTTCTGTTCAAGCGCCATCTAC”, the binding signal (RPM ratio (pull-down/input)) was 0.542. “GATGATTGTTCTCCCAGCTGATGAATTCCTGTCTTCGAGTAAACAAATTTTCCTAATCTTTCTGTTCAAGCGCCATCTAC” gave a binding signal (RPM ratio (pull-down/input)) of 0.333. “GATGATTGTTCTCCCAGCTGATGAATTTTAACCTTCGAGTAAACAAATTTTCCTAATCTTTCTGTTCAAGCGCCATCTAC” gave a binding signal (RPM ratio (pull-down/input)) of 0.272. For “GATGATTGTTCTCCCAGCTGATGAATTGGCGGATTCGAGTAAACAAATTTTCCTAATCTTTCTGTTCAAGCGCCATCTAC”, the binding signal (RPM ratio (pull-down/input)) was 0.344. “GATGATTGTTCTCCCAGCTGATGAATTGTGGATCTCGAGTAAACAAATTTTCCTAATCTTTCTGTTCAAGCGCCATCTAC” showed a binding signal (RPM ratio (pull-down/input)) of 0.687. “GATGATTGTTCTCCCAGCTGATGAATTGGAATGATCGAGTAAACAAATTTTCCTAATCTTTCTGTTCAAGCGCCATCTAC” showed a binding signal (RPM ratio (pull-down/input)) of 0.358. In the case of “GATGATTGTTCTCCCAGCTGATGAATTAACTGGTTCGAGTAAACAAATTTTCCTAATCTTTCTGTTCAAGCGCCATCTAC”, the binding signal (RPM ratio (pull-down/input)) is reported as 0.341. Work on “GATGATTGTTCTCCCAGCTGATGAATTTCCTGCTTCGAGTAAACAAATTTTCCTAATCTTTCTGTTCAAGCGCCATCTAC” yielded a binding signal (RPM ratio (pull-down/input)) of 0.253. With “GATGATTGTTCTCCCAGCTGATGAATTATCTCCCTCGAGTAAACAAATTTTCCTAATCTTTCTGTTCAAGCGCCATCTAC” the binding signal (RPM ratio (pull-down/input)) was 0.252. Sequence “GATGATTGTTCTCCCAGCTGATGAATTCTCGCACTCGAGTAAACAAATTTTCCTAATCTTTCTGTTCAAGCGCCATCTAC” has a binding signal (RPM ratio (pull-down/input)) of 0.545. Sequence “GATGATTGTTCTCCCAGCTGATGAATTTGTGTCCTCGAGTAAACAAATTTTCCTAATCTTTCTGTTCAAGCGCCATCTAC” has a binding signal (RPM ratio (pull-down/input)) of 5.41. “GATGATTGTTCTCCCAGCTGATGAATTATGAGTATCGAGTAAACAAATTTTCCTAATCTTTCTGTTCAAGCGCCATCTAC” was tested, and the binding signal (RPM ratio (pull-down/input)) was 1.18. “GATGATTGTTCTCCCAGCTGATGAATTTGGACTATCGAGTAAACAAATTTTCCTAATCTTTCTGTTCAAGCGCCATCTAC” was tested, and the binding signal (RPM ratio (pull-down/input)) was 0.629. “GATGATTGTTCTCCCAGCTGATGAATTCCGCGATTCGAGTAAACAAATTTTCCTAATCTTTCTGTTCAAGCGCCATCTAC” gave a binding signal (RPM ratio (pull-down/input)) of 1.22. For “GATGATTGTTCTCCCAGCTGATGAATTCACACCTTCGAGTAAACAAATTTTCCTAATCTTTCTGTTCAAGCGCCATCTAC”, the binding signal (RPM ratio (pull-down/input)) was 0.352. “GATGATTGTTCTCCCAGCTGATGAATTCACTGGCTCGAGTAAACAAATTTTCCTAATCTTTCTGTTCAAGCGCCATCTAC” was tested, and the binding signal (RPM ratio (pull-down/input)) was 0.23. “GATGATTGTTCTCCCAGCTGATGAATTTATAACGTCGAGTAAACAAATTTTCCTAATCTTTCTGTTCAAGCGCCATCTAC” was tested, and the binding signal (RPM ratio (pull-down/input)) was 0.547. In the case of “GATGATTGTTCTCCCAGCTGATGAATTCAGGGCCTCGAGTAAACAAATTTTCCTAATCTTTCTGTTCAAGCGCCATCTAC”, the binding signal (RPM ratio (pull-down/input)) is reported as 0.404.
